According to the supplement of paper PMC4967469:
A lower IC50 marks a more sensitive line; fits outside the tested doses are given as limits. AUC is the area under the same curve over the 256-fold range up to the top dose, as a fraction: 1 means no effect, lower means more sensitive. For some assays here: A top dose marked as inferred comes from the curve model; the source does not state it.

Experiments:
Experiment in all cases: Viability of human cancer cell lines after 72 h of drug (GDSC screen)
CI-1040 = compound: O=C(NOCC1CC1)c1ccc(F)c(F)c1Nc1ccc(I)cc1Cl [CI-1040]; conditions: top dose 10 µM; top dose inferred
Experimental: (§1)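 Human cancer cell lines in 384-well plates, medium with 10% serum, drug for 72 h over a 256-fold dose range (nine 2-fold or five 4-fold steps up to the top dose). Adherent lines were fixed and stained with the nucleic acid dye Syto60, suspension lines read with resazurin; signal relative to control wells, capped at 0 and 100%. One two-parameter sigmoid per drug and line, fitted in a mixed model over all curves with the slope shared within a line.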

Temozolomide = compound: Cn1nnc2c(C(N)=O)ncn2c1=O [Temozolomide]; conditions: top dose 30 µM
Experimental: as §1

Tubastatin A = compound: CN1CCc2c(c3ccccc3n2Cc2ccc(C(=O)NO)cc2)C1 [Tubastatin A]; conditions: top dose 20 µM
Experimental: as §1

XL-880 = compound: COc1cc2c(Oc3ccc(NC(=O)C4(C(=O)Nc5ccc(F)cc5)CC4)cc3F)ccnc2cc1OCCCN1CCOCC1 [XL-880]; conditions: top dose 5.12 µM; top dose inferred
Experimental: as §1

IPA-3 = compound: Oc1ccc2ccccc2c1SSc1c(O)ccc2ccccc12 [IPA-3]; conditions: top dose 32 µM; top dose inferred
Experimental: as §1

Cell Line	AUC (CI-1040)	IC50 (CI-1040) [µM]	AUC (Temozolomide)	IC50 (Temozolomide) [µM]	AUC (Tubastatin A)	IC50 (Tubastatin A) [µM]	AUC (XL-880)	IC50 (XL-880) [µM]	AUC (IPA-3)	IC50 (IPA-3) [µM]
CL-40 (large intestine, adherent)	0.833	> 10	0.966	> 30	–	–	–	–	–	–
VMRC-RCW (kidney, adherent)	0.93	> 10	–	–	0.983	> 20	0.703	1.13	0.857	23.1
U-266 (myeloma, semi-adherent)	0.764	4.91	0.964	> 30	–	–	–	–	–	–
201T (lung adenocarcinoma, adherent)	0.944	> 10	–	–	0.977	> 20	0.713	1.52	0.922	> 32
COR-L321 (lung, suspension)	0.959	> 10	0.964	> 30	0.831	12.6	0.717	1.32	–	–
KMRC-1 (kidney, adherent)	0.893	> 10	–	–	0.97	> 20	0.734	1.56	0.862	30
HCC-827 (lung adenocarcinoma, adherent)	0.857	> 10	–	–	0.979	> 20	–	–	0.897	> 32
MEL-HO (melanoma, adherent)	0.41	0.353	0.971	> 30	–	–	–	–	–	–
OACM5-1 (oesophagus, semi-adherent)	0.946	> 10	0.98	> 30	0.851	18.5	0.441	0.217	–	–
PANC-04-03 (pancreas, adherent)	0.674	2.58	–	–	0.977	> 20	0.763	3.06	0.96	> 32
IGROV-1 (ovary, adherent)	0.901	> 10	0.973	> 30	–	–	–	–	–	–
KARPAS-1106P (B-cell lymphoma, suspension)	0.866	6.44	0.98	> 30	–	–	–	–	–	–
CML-T1 (chronic myeloid leukaemia, suspension)	0.855	5.94	0.978	> 30	–	–	–	–	–	–
LN-229 (glioma, adherent)	0.809	5.18	–	–	0.984	> 20	0.812	2.74	0.884	> 32
CRO-AP2 (B-cell lymphoma, suspension)	0.942	> 10	0.836	16.3	–	–	–	–	–	–
JEKO-1 (B-cell lymphoma, suspension)	0.913	> 10	0.981	> 30	–	–	–	–	–	–
DAN-G (pancreas, adherent)	0.892	9.18	–	–	0.99	> 20	0.72	1.22	0.984	> 32
MDA-MB-361 (breast, adherent)	0.883	> 10	0.974	> 30	0.954	> 20	0.946	> 5.12	–	–
MHH-CALL-2 (B-cell leukaemia, suspension)	0.961	> 10	0.997	> 30	–	–	–	–	–	–
RH-18 (rhabdomyosarcoma, adherent)	0.9	> 10	0.979	> 30	–	–	–	–	–	–
BT-549 (breast, adherent)	0.968	> 10	0.934	> 30	–	–	–	–	–	–
BALL-1 (B-cell leukaemia, suspension)	0.973	> 10	0.985	> 30	–	–	–	–	–	–
NCI-H146 (small cell lung carcinoma, suspension)	0.982	> 10	0.992	> 30	–	–	–	–	–	–

Cell Line	AUC (CI-1040)	IC50 (CI-1040) [µM]	AUC (Temozolomide)	IC50 (Temozolomide) [µM]	AUC (Tubastatin A)	IC50 (Tubastatin A) [µM]	AUC (XL-880)	IC50 (XL-880) [µM]	AUC (IPA-3)	IC50 (IPA-3) [µM]
SK-MEL-31 (melanoma, adherent)	0.915	> 10	0.981	> 30	–	–	–	–	–	–
MOLM-16 (acute myeloid leukaemia, suspension)	0.769	3.33	0.97	> 30	–	–	–	–	–	–
MOLT-16 (T-cell lymphoblastic leukaemia, suspension)	0.837	4.86	0.979	> 30	–	–	–	–	–	–
JHOS-4 (ovary, adherent)	0.974	> 10	0.967	> 30	–	–	–	–	–	–
KNS-62 (lung squamous cell carcinoma, adherent)	0.678	2.47	0.91	> 30	–	–	–	–	–	–
U251 (glioma, adherent)	0.873	8.86	–	–	0.874	17.9	0.564	0.475	0.987	> 32
RCH-ACV (B-cell leukaemia, suspension)	0.93	> 10	0.976	> 30	–	–	–	–	–	–
PA-1 (ovary, adherent)	0.891	7.2	–	–	0.7	3.95	0.418	0.201	0.757	8.93
GMS-10 (glioma, adherent)	0.897	> 10	–	–	0.983	> 20	0.778	2.06	0.881	> 32
SNU-182 (liver, adherent)	–	–	0.973	> 30	0.977	> 20	0.658	0.898	0.819	19.3
H2818 (mesothelioma, adherent)	–	–	0.982	> 30	0.973	> 20	0.965	> 5.12	0.972	> 32
MG-63 (osteosarcoma, adherent)	0.927	> 10	–	–	0.983	> 20	0.984	> 5.12	0.67	6.48
KOSC-2 (head and neck, adherent)	–	–	0.955	> 30	0.974	> 20	0.525	0.376	0.876	> 32
ME-180 (cervix, adherent)	–	–	0.98	> 30	0.985	> 20	0.571	0.506	0.986	> 32
Hs746T (stomach, adherent)	0.862	> 10	0.978	> 30	0.83	19	0.605	0.688	–	–
CAL-54 (kidney, adherent)	–	–	0.983	> 30	0.965	> 20	0.623	0.737	0.955	> 32
A204 (rhabdomyosarcoma, adherent)	–	–	0.975	> 30	0.887	> 20	0.367	0.123	0.974	> 32
HTC-C3 (thyroid, adherent)	–	–	0.981	> 30	0.925	> 20	0.788	2.54	0.854	30.3
SNU-61 (large intestine, adherent)	0.9	> 10	0.977	> 30	0.868	> 20	0.684	1.25	–	–
NCI-H1105 (small cell lung carcinoma, suspension)	0.966	> 10	0.977	> 30	–	–	–	–	–	–
BFTC-909 (kidney, adherent)	–	–	0.951	> 30	0.988	> 20	0.83	3.11	0.984	> 32
KMS-11 (myeloma, suspension)	0.94	> 10	0.991	> 30	0.959	> 20	0.518	0.356	–	–
MM1S (myeloma, suspension)	0.79	4.2	–	–	–	–	–	–	–	–

Cell Line	AUC (CI-1040)	IC50 (CI-1040) [µM]	AUC (Temozolomide)	IC50 (Temozolomide) [µM]	AUC (Tubastatin A)	IC50 (Tubastatin A) [µM]	AUC (XL-880)	IC50 (XL-880) [µM]	AUC (IPA-3)	IC50 (IPA-3) [µM]
TCCSUP (bladder, adherent)	–	–	0.955	> 30	0.982	> 20	0.704	1.32	0.894	> 32
NCI-H2052 (mesothelioma, adherent)	0.916	> 10	–	–	0.963	> 20	0.918	> 5.12	0.972	> 32
MS751 (cervix, adherent)	–	–	0.988	> 30	0.979	> 20	0.823	2.71	0.99	> 32
HCC1806 (breast, adherent)	–	–	0.977	> 30	0.843	12.5	0.771	1.81	0.887	30.5
RD (rhabdomyosarcoma, adherent)	–	–	0.981	> 30	0.919	> 20	0.62	0.706	0.907	> 32
RERF-GC-1B (stomach, adherent)	–	–	0.973	> 30	0.96	> 20	0.565	0.491	0.909	> 32
769-P (kidney, adherent)	–	–	0.981	> 30	0.911	> 20	0.614	0.681	0.763	12.6
PCI-38 (head and neck, adherent)	–	–	0.985	> 30	0.96	> 20	0.571	0.5	0.986	> 32
NUGC-3 (stomach, adherent)	–	–	0.981	> 30	0.982	> 20	0.831	3.82	0.839	25.9
SW837 (large intestine, adherent)	–	–	0.977	> 30	0.965	> 20	0.655	0.991	0.729	11.3
PANC-10-05 (pancreas, adherent)	–	–	0.974	> 30	0.935	> 20	0.715	1.57	0.836	30.4
BHY (head and neck, adherent)	–	–	0.985	> 30	0.947	> 20	0.595	0.583	0.869	29.6
NCI-H1793 (lung adenocarcinoma, adherent)	–	–	0.979	> 30	0.981	> 20	0.825	4.92	0.979	> 32
LCLC-103H (large cell lung carcinoma, adherent)	–	–	0.99	> 30	0.976	> 20	0.704	1.13	0.791	12.9
COR-L105 (lung adenocarcinoma, adherent)	–	–	0.967	> 30	0.853	> 20	0.674	1.1	0.702	8.51
NCI-H1341 (small cell lung carcinoma, suspension)	0.958	> 10	0.987	> 30	–	–	–	–	–	–
ML-1 (thyroid, adherent)	–	–	0.981	> 30	0.981	> 20	0.743	1.82	0.696	7.86
GCT (soft tissue, adherent)	–	–	0.883	28.4	0.984	> 20	0.919	> 5.12	0.985	> 32
NCI-H835 (lung carcinoid, suspension)	0.991	> 10	0.981	> 30	–	–	–	–	–	–
SUP-B8 (B-cell leukaemia, suspension)	0.987	> 10	0.976	> 30	–	–	–	–	–	–
Hep 3B2_1-7 (liver, adherent)	–	–	0.985	> 30	0.981	> 20	0.544	0.421	0.867	28.9
KP-4 (pancreas, adherent)	–	–	0.985	> 30	0.835	12.4	0.713	1.24	0.988	> 32
OAW-28 (ovary, adherent)	–	–	0.976	> 30	0.968	> 20	0.551	0.456	0.982	> 32
